Results taken from the supplement of paper PMC10369915.
The list shows a part of the results. Cut-off read from the data, not from the text of the source: active = 3.2 or more and inactive = the rest. Most of these values are background signal.

Experiments:
Assay in all cases: enrichment score (SH2-bound / input frequency) (ratio); bacterial display of known human phosphotyrosine sites (pTyr-Var adds point mutants) read by sequencing; higher = stronger binding; tyrosines were phosphorylated by kinases first
Details in all cases: peptide library: Human pTyr
SHP2 C-SH2 domain E139D = molecular target: SHP2 C-SH2 domain E139D
[1] = molecular target: SHP2 C-SH2 domain wild-type
SHP2 N-SH2 domain L43F = molecular target: SHP2 N-SH2 domain L43F
SHP2 N-SH2 domain T42A = molecular target: SHP2 N-SH2 domain T42A
SHP2 N-SH2 domain T52S = molecular target: SHP2 N-SH2 domain T52S
[2] = molecular target: SHP2 N-SH2 domain wild-type

Measured: enrichment score
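Note: displayed peptides selected on beads carrying the immobilized SH2 domain, with library peptides lacking any tyrosine serving as negative controls.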

IPKEPSNYDFVADCN [ELMO1_HUMAN_720_YA]
inactive: SHP2 C-SH2 domain E139D 0.927 | [1] 0.731 | SHP2 N-SH2 domain L43F 0.888 | SHP2 N-SH2 domain T42A 0.797 | SHP2 N-SH2 domain T52S 0.859 | [2] 1.09

DKLWLKPYVDLQAYE [EPHA1_HUMAN_599]
inactive: SHP2 C-SH2 domain E139D 1.11 | [1] 1.08 | SHP2 N-SH2 domain L43F 1.06 | SHP2 N-SH2 domain T42A 1.21 | SHP2 N-SH2 domain T52S 1.04 | [2] 1.23

YKSFIKDYPVVSIED [ENOA_HUMAN_287]
inactive: SHP2 C-SH2 domain E139D 1.16 | [1] 0.687 | SHP2 N-SH2 domain L43F 0.789 | SHP2 N-SH2 domain T42A 0.993 | SHP2 N-SH2 domain T52S 0.873 | [2] 1.05

SRRVFNPYTEFKEFS [EFHD2_HUMAN_83]
inactive: SHP2 C-SH2 domain E139D 1.04 | [1] 1.25 | SHP2 N-SH2 domain L43F 0.946 | SHP2 N-SH2 domain T42A 0.99 | SHP2 N-SH2 domain T52S 0.993 | [2] 1.12

KNEFISEYCGEIISQ [EZH2_HUMAN_641]
inactive: SHP2 C-SH2 domain E139D 1 | [1] 1.14 | SHP2 N-SH2 domain L43F 0.97 | SHP2 N-SH2 domain T42A 0.911 | SHP2 N-SH2 domain T52S 1.26 | [2] 1.19

ENSSDPTYTSSLGGK [EPHB4_HUMAN_774]
inactive: SHP2 C-SH2 domain E139D 0.669 | [1] 0.593 | SHP2 N-SH2 domain L43F 0.717 | SHP2 N-SH2 domain T42A 0.619 | SHP2 N-SH2 domain T52S 0.656 | [2] 0.532

SIYIPSSYVDSHHEY [ESR2_HUMAN_36]
inactive: SHP2 C-SH2 domain E139D 0.687 | [1] 0.665 | SHP2 N-SH2 domain L43F 0.864 | SHP2 N-SH2 domain T42A 0.56 | SHP2 N-SH2 domain T52S 0.823 | [2] 0.564

GGGMAAAYLDPNLNH [FAK1_HUMAN_5]
inactive: SHP2 C-SH2 domain E139D 0.643 | [1] 0.597 | SHP2 N-SH2 domain L43F 0.562 | SHP2 N-SH2 domain T42A 0.579 | SHP2 N-SH2 domain T52S 0.612 | [2] 0.607

DEDEEAEYMNRRRRH [ERBB3_HUMAN_1199_YA]
inactive: SHP2 C-SH2 domain E139D 0.951 | [1] 0.866 | SHP2 N-SH2 domain L43F 0.765 | SHP2 N-SH2 domain T42A 0.796 | SHP2 N-SH2 domain T52S 0.73 | [2] 0.766

SKGANDDYAEESAFT [EMD_HUMAN_94_YA]
inactive: SHP2 C-SH2 domain E139D 0.732 | [1] 0.648 | SHP2 N-SH2 domain L43F 0.77 | SHP2 N-SH2 domain T42A 0.604 | SHP2 N-SH2 domain T52S 0.581 | [2] 0.9

TPDEDAEYMNRQRDG [ERBB3_HUMAN_1262_YA]
inactive: SHP2 C-SH2 domain E139D 1.09 | [1] 0.59 | SHP2 N-SH2 domain L43F 0.888 | SHP2 N-SH2 domain T42A 0.635 | SHP2 N-SH2 domain T52S 0.938 | [2] 0.58

AEKKIFEYETQRRRL [EMD_HUMAN_41_YA]
inactive: SHP2 C-SH2 domain E139D 1.04 | [1] 1.14 | SHP2 N-SH2 domain L43F 1.84 | SHP2 N-SH2 domain T42A 1.4 | SHP2 N-SH2 domain T52S 1.82 | [2] 1.07

SLGGKKDYQTSPLLE [ADSV_HUMAN_599]
inactive: SHP2 C-SH2 domain E139D 0.742 | [1] 0.704 | SHP2 N-SH2 domain L43F 0.802 | SHP2 N-SH2 domain T42A 0.934 | SHP2 N-SH2 domain T52S 0.787 | [2] 0.773

DKLWLKPYVDLQAAE [EPHA1_HUMAN_599_YA]
inactive: SHP2 C-SH2 domain E139D 1.02 | [1] 1.01 | SHP2 N-SH2 domain L43F 0.984 | SHP2 N-SH2 domain T42A 1.02 | SHP2 N-SH2 domain T52S 1.28 | [2] 1

TYVDPHTYEDPTQAV [EPHA3_HUMAN_602]
inactive: SHP2 C-SH2 domain E139D 0.727 | [1] 0.409 | SHP2 N-SH2 domain L43F 0.637 | SHP2 N-SH2 domain T42A 0.698 | SHP2 N-SH2 domain T52S 0.508 | [2] 0.651

EYVNEPLYLNTFANT [ERBB4_HUMAN_1208]
inactive: SHP2 C-SH2 domain E139D 0.981 | [1] 0.839 | SHP2 N-SH2 domain L43F 0.679 | SHP2 N-SH2 domain T42A 0.819 | SHP2 N-SH2 domain T52S 0.911 | [2] 0.881

TAIDPDTYEDPSLAV [EPHA6_HUMAN_612_YA]
inactive: SHP2 C-SH2 domain E139D 1 | [1] 0.855 | SHP2 N-SH2 domain L43F 0.801 | SHP2 N-SH2 domain T42A 1.24 | SHP2 N-SH2 domain T52S 0.968 | [2] 0.917

SKLQNLSYTEILKIR [ELMO1_HUMAN_511]
inactive: SHP2 C-SH2 domain E139D 1.31 | [1] 1.69 | SHP2 N-SH2 domain L43F 1.43 | SHP2 N-SH2 domain T42A 1.65 | SHP2 N-SH2 domain T52S 1.3 | [2] 1.42

ASAASFEYTILDPSS [EPOR_HUMAN_426]
inactive: SHP2 C-SH2 domain E139D 0.699 | [1] 0.843 | SHP2 N-SH2 domain L43F 1.18 | SHP2 N-SH2 domain T42A 0.836 | SHP2 N-SH2 domain T52S 0.862 | [2] 0.77

ARPLVEFYEEIKKYE [ADRBK1_HUMAN_86]
inactive: SHP2 C-SH2 domain E139D 1.25 | [1] 1.74 | SHP2 N-SH2 domain L43F 0.994 | SHP2 N-SH2 domain T42A 1.36 | SHP2 N-SH2 domain T52S 0.992 | [2] 1.38

EVAPPKAYEVRIKMV [ADH1B_HUMAN_35]
inactive: SHP2 C-SH2 domain E139D 1.31 | [1] 1.13 | SHP2 N-SH2 domain L43F 1.09 | SHP2 N-SH2 domain T42A 1.22 | SHP2 N-SH2 domain T52S 1.37 | [2] 1.42

SSENFDDYMKEVGVG [FABP4_HUMAN_20]
inactive: SHP2 C-SH2 domain E139D 1.01 | [1] 0.862 | SHP2 N-SH2 domain L43F 1.05 | SHP2 N-SH2 domain T42A 0.944 | SHP2 N-SH2 domain T52S 1.33 | [2] 1.21

SEHAQDTYLVLDKWL [EPOR_HUMAN_368]
inactive: SHP2 C-SH2 domain E139D 0.785 | [1] 0.687 | SHP2 N-SH2 domain L43F 0.561 | SHP2 N-SH2 domain T42A 0.643 | SHP2 N-SH2 domain T52S 0.637 | [2] 0.458

KFPGTKTYIDPETYE [EPHA7_HUMAN_608]
inactive: SHP2 C-SH2 domain E139D 0.693 | [1] 0.846 | SHP2 N-SH2 domain L43F 0.653 | SHP2 N-SH2 domain T42A 0.612 | SHP2 N-SH2 domain T52S 0.7 | [2] 0.898

EIFTGVEYSSCDTIA [EPHA3_HUMAN_937]
inactive: SHP2 C-SH2 domain E139D 1.09 | [1] 0.957 | SHP2 N-SH2 domain L43F 0.965 | SHP2 N-SH2 domain T42A 0.997 | SHP2 N-SH2 domain T52S 1.12 | [2] 0.964

AVLADVSYLMAMEKS [ADRBK1_HUMAN_13]
inactive: SHP2 C-SH2 domain E139D 0.63 | [1] 0.62 | SHP2 N-SH2 domain L43F 0.74 | SHP2 N-SH2 domain T42A 0.745 | SHP2 N-SH2 domain T52S 1.36 | [2] 0.433

DDYYEESYFTTRTYG [EMD_HUMAN_99]
inactive: SHP2 C-SH2 domain E139D 1.22 | [1] 0.903 | SHP2 N-SH2 domain L43F 0.807 | SHP2 N-SH2 domain T42A 0.932 | SHP2 N-SH2 domain T52S 0.926 | [2] 0.948

SRTTDGVYEGVAIGG [ACLY_HUMAN_682]
inactive: SHP2 C-SH2 domain E139D 0.691 | [1] 0.515 | SHP2 N-SH2 domain L43F 0.62 | SHP2 N-SH2 domain T42A 0.551 | SHP2 N-SH2 domain T52S 0.618 | [2] 0.703

IKIRPGEYEQFESTI [E41L1_HUMAN_343]
inactive: SHP2 C-SH2 domain E139D 0.842 | [1] 0.779 | SHP2 N-SH2 domain L43F 1.61 | SHP2 N-SH2 domain T42A 0.702 | SHP2 N-SH2 domain T52S 0.884 | [2] 0.913

SSLDLSYYPTSSSTS [EMD_HUMAN_182]
inactive: SHP2 C-SH2 domain E139D 0.604 | [1] 0.584 | SHP2 N-SH2 domain L43F 0.6 | SHP2 N-SH2 domain T42A 0.474 | SHP2 N-SH2 domain T52S 0.646 | [2] 0.516

DSGISTDYSSGDSQG [EPOR_HUMAN_468]
inactive: SHP2 C-SH2 domain E139D 0.746 | [1] 0.486 | SHP2 N-SH2 domain L43F 0.673 | SHP2 N-SH2 domain T42A 0.592 | SHP2 N-SH2 domain T52S 0.637 | [2] 0.567

TYIDPETYEDPNRAV [EPHA7_HUMAN_614]
inactive: SHP2 C-SH2 domain E139D 0.852 | [1] 0.533 | SHP2 N-SH2 domain L43F 0.676 | SHP2 N-SH2 domain T42A 0.751 | SHP2 N-SH2 domain T52S 0.843 | [2] 0.688

KLPGVRTYIDPHTYE [EPHA5_HUMAN_650]
inactive: SHP2 C-SH2 domain E139D 0.633 | [1] 0.565 | SHP2 N-SH2 domain L43F 0.527 | SHP2 N-SH2 domain T42A 0.799 | SHP2 N-SH2 domain T52S 0.663 | [2] 0.535

SSLDLSAYPTSSSTS [EMD_HUMAN_182_YA]
inactive: SHP2 C-SH2 domain E139D 0.564 | [1] 0.47 | SHP2 N-SH2 domain L43F 0.516 | SHP2 N-SH2 domain T42A 0.465 | SHP2 N-SH2 domain T52S 0.386 | [2] 0.53

TAVDPHTYEDPNQAV [EPHA2_HUMAN_594_YA]
inactive: SHP2 C-SH2 domain E139D 0.755 | [1] 0.871 | SHP2 N-SH2 domain L43F 0.873 | SHP2 N-SH2 domain T42A 1.01 | SHP2 N-SH2 domain T52S 0.715 | [2] 0.418

FAAEPHTYEEPGRAG [EPHA8_HUMAN_616_YA]
inactive: SHP2 C-SH2 domain E139D 0.944 | [1] 0.667 | SHP2 N-SH2 domain L43F 0.773 | SHP2 N-SH2 domain T42A 0.579 | SHP2 N-SH2 domain T52S 0.736 | [2] 0.67
